Test results taken from PMC5892938.
The other results are listed elsewhere or left out. At the low end of the ranking, values are background and their order means little.
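Note: DESeq read counts versus GST-SBP nonspecific binding control pulldown.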

What follows are sequences tested against GST-SBP-SLBP (stem-loop binding protein) (UniProt Q14493) (assay: targeted RNA Bind-n-Seq). Details: RBNS binding buffer: 25 mM Tris pH 7.5, 150 mM KCl, 3 mM MgCl2, 0.1% Tween, 0.5 mg/mL BSA, 1 mM DTT; 27 nM protein, 750 pM RNA pool; temperature not stated; high values mean tight binding.
In the case of “GGUCACGUCUCAAUCAACUCUUCGCCAGGAGUUUUCUCCUGUAUACUCAACAGCUCGCAGUCAAG”, the binding signal (log2 fold change) is reported as 0.0185. “GGUCACGUCUCAAUCAACUCACAUGAGGGGGGGAAAACCCCUUUACCCUCCACAUCAACAGCUCGCAGUCAAG” was tested, and the binding signal (log2 fold change) was -0.0622. For “GGUCACGUCUCAAUCAACUCAUCUUCCAGGGAAAUCCCUGGUAAACUCAACAGCUCGCAGUCAAG”, the binding signal (log2 fold change) was 0.0742. “GGUCACGUCUCAAUCAACUCAUUCCCCAGGGAAACCCCUGGUAAUCUCAACAGCUCGCAGUCAAG” gave a binding signal (log2 fold change) of -0.072. “GGUCACGUCUCAAUCAACUCAUCCUCCAGGGAAAUCCCUGGUUAUCUCAACAGCUCGCAGUCAAG” was tested, and the binding signal (log2 fold change) was -0.0604. “GGUCACGUCUCAAUCAACUCAAUGGAGGGGGGGAAAACCCCUUUACCCUCACUAUCAACAGCUCGCAGUCAAG” gave a binding signal (log2 fold change) of -0.0826. Work on “GGUCACGUCUCAAUCAACUCUUUCCCAGGAGUUUUCUCCUGCAAUUUCAACAGCUCGCAGUCAAG” yielded a binding signal (log2 fold change) of -0.118. With “GGUCACGUCUCAAUCAACUCUUCCCCCAGGGAAAGCCCUGGCUUAUUCAACAGCUCGCAGUCAAG” the binding signal (log2 fold change) was -0.115. For “GGUCACGUCUCAAUCAACUCAUCUCCAGGAGUUUUCUCCUGUAUUCUCAACAGCUCGCAGUCAAG”, the binding signal (log2 fold change) was 0.161. With “GGUCACGUCUCAAUCAACUCUACGCCAGGAGUUUUCUCCUGUUAUCUCAACAGCUCGCAGUCAAG” the binding signal (log2 fold change) was -0.151. “GGUCACGUCUCAAUCAACUCUUCUCCCAGGGAAACCCCUGGCUUAUUCAACAGCUCGCAGUCAAG” gave a binding signal (log2 fold change) of -0.256. In the case of “GGUCACGUCUCAAUCAACUCAUCUCCCAGGGAAAGCCCUGGUAAAUUCAACAGCUCGCAGUCAAG”, the binding signal (log2 fold change) is reported as -0.107. Sequence “GGUCACGUCUCAAUCAACUCAUCUCCAGGAGUUUCCUCCUGCUAACUCAACAGCUCGCAGUCAAG” has a binding signal (log2 fold change) of 0.133. With “GGUCACGUCUCAAUCAACUCAGUCCCCAGGGAAAUCCCUGGUAUAUUCAACAGCUCGCAGUCAAG” the binding signal (log2 fold change) was -0.00212. With “GGUCACGUCUCAAUCAACUCUCCCGAGGGGGGGAAAACCCCUUUACCCUCAUCUUCAACAGCUCGCAGUCAAG” the binding signal (log2 fold change) was -0.256. In the case of “GGUCACGUCUCAAUCAACUCAACUGAGGGGGGGAAAACCCCUUUACCCUCCACAUCAACAGCUCGCAGUCAAG”, the binding signal (log2 fold change) is reported as 0.388. Work on “GGUCACGUCUCAAUCAACUCCCAAGAGGGGGGGAAAACCCCUUUACCCUCGUAAUCAACAGCUCGCAGUCAAG” yielded a binding signal (log2 fold change) of 0.444. “GGUCACGUCUCAAUCAACUCUCAAGAGGGGGGGAAAACCCCUUUGCCCUCGUCAUCAACAGCUCGCAGUCAAG” was tested, and the binding signal (log2 fold change) was -0.143. For “GGUCACGUCUCAAUCAACUCUCUGGAGGGGGGGAAAACCCCUUUACCCUCAAUUUCAACAGCUCGCAGUCAAG”, the binding signal (log2 fold change) was -0.116. “GGUCACGUCUCAAUCAACUCAAUUUCAGGAGUUUCCUCCUGCAUUUUCAACAGCUCGCAGUCAAG” was tested, and the binding signal (log2 fold change) was -0.000916. Sequence “GGUCACGUCUCAAUCAACUCUACUUCCAGGGAAAGCCCUGGCAUUUUCAACAGCUCGCAGUCAAG” has a binding signal (log2 fold change) of 0.231. For “GGUCACGUCUCAAUCAACUCAUUCUCCAGGGAAAGCCCUGGUUAACUCAACAGCUCGCAGUCAAG”, the binding signal (log2 fold change) was 0.072. For “GGUCACGUCUCAAUCAACUCUUUUUCCAGGGAAAUCCCUGGUAUACUCAACAGCUCGCAGUCAAG”, the binding signal (log2 fold change) was -0.22. “GGUCACGUCUCAAUCAACUCAUUUUCAGGAGUUUACUCCUGCAUACUCAACAGCUCGCAGUCAAG” was tested, and the binding signal (log2 fold change) was -0.0653. “GGUCACGUCUCAAUCAACUCUUUUCCAGGAGUUUUCUCCUGUAUACUCAACAGCUCGCAGUCAAG” showed a binding signal (log2 fold change) of -0.12. “GGUCACGUCUCAAUCAACUCUUUAGAGGGGGGGAAAACCCCUUUGCCCUCCAACUCAACAGCUCGCAGUCAAG” gave a binding signal (log2 fold change) of -0.302. With “GGUCACGUCUCAAUCAACUCAAUUUCCAGGGAAAGCCCUGGCAUAUUCAACAGCUCGCAGUCAAG” the binding signal (log2 fold change) was -0.0217. Sequence “GGUCACGUCUCAAUCAACUCAACUUCCAGGGAAAGCCCUGGCAAACUCAACAGCUCGCAGUCAAG” has a binding signal (log2 fold change) of -0.109. “GGUCACGUCUCAAUCAACUCUAAAGAGGGGGGGAAAACCCCUUUACCCUCCUACUCAACAGCUCGCAGUCAAG” showed a binding signal (log2 fold change) of 0.315. With “GGUCACGUCUCAAUCAACUCAACUCCAGGAGUUUUCUCCUGCUUAUUCAACAGCUCGCAGUCAAG” the binding signal (log2 fold change) was 0.0147. With “GGUCACGUCUCAAUCAACUCAUACGAGGGGGGGAAAACCCCUUUGCCCUCAAUUUCAACAGCUCGCAGUCAAG” the binding signal (log2 fold change) was -0.243. “GGUCACGUCUCAAUCAACUCUUCCCCAGGAGUUUUCUCCUGCAAUCUCAACAGCUCGCAGUCAAG” showed a binding signal (log2 fold change) of 0.084. “GGUCACGUCUCAAUCAACUCAUUCUCCAGGGAAAUCCCUGGUAUAUUCAACAGCUCGCAGUCAAG” was tested, and the binding signal (log2 fold change) was 0.269. “GGUCACGUCUCAAUCAACUCUAUCUCCAGGGAAACCCCUGGCAUACUCAACAGCUCGCAGUCAAG” gave a binding signal (log2 fold change) of 0.0461. In the case of “GGUCACGUCUCAAUCAACUCAUCGUCAGGAGUUUCCUCCUGCAAUCUCAACAGCUCGCAGUCAAG”, the binding signal (log2 fold change) is reported as 0.058. Work on “GGUCACGUCUCAAUCAACUCUAUGUCCAGGGAAAGCCCUGGUUUUUUCAACAGCUCGCAGUCAAG” yielded a binding signal (log2 fold change) of -0.186. For “GGUCACGUCUCAAUCAACUCAUCGCCCAGGGAAAACCCUGGUAUAUUCAACAGCUCGCAGUCAAG”, the binding signal (log2 fold change) was -0.314. “GGUCACGUCUCAAUCAACUCUUCCUCAGGAGUUUUCUCCUGUAAACUCAACAGCUCGCAGUCAAG” gave a binding signal (log2 fold change) of -0.0693. “GGUCACGUCUCAAUCAACUCAGUCUCAGGAGUUUUCUCCUGUAAAUUCAACAGCUCGCAGUCAAG” gave a binding signal (log2 fold change) of -0.149. Sequence “GGUCACGUCUCAAUCAACUCAAGUCCAGGAGUUUUCUCCUGUAAUUUCAACAGCUCGCAGUCAAG” has a binding signal (log2 fold change) of -0.0131. Sequence “GGUCACGUCUCAAUCAACUCUUCCUCAGGAGUUUUCUCCUGCUUAUUCAACAGCUCGCAGUCAAG” has a binding signal (log2 fold change) of -0.0206. “GGUCACGUCUCAAUCAACUCAUUUCCCAGGGAAAGCCCUGGUUAUCUCAACAGCUCGCAGUCAAG” was tested, and the binding signal (log2 fold change) was 0.0545. For “GGUCACGUCUCAAUCAACUCAUCGUCAGGAGUUUGCUCCUGUAUUUUCAACAGCUCGCAGUCAAG”, the binding signal (log2 fold change) was 0.0128. Sequence “GGUCACGUCUCAAUCAACUCCAUCGAGGGGGGGAAAACCCCUUUACCCUCAUCUUCAACAGCUCGCAGUCAAG” has a binding signal (log2 fold change) of -0.0167. Sequence “GGUCACGUCUCAAUCAACUCUACUCCCAGGGAAACCCCUGGCAUACUCAACAGCUCGCAGUCAAG” has a binding signal (log2 fold change) of -0.00558. Work on “GGUCACGUCUCAAUCAACUCAUGUCCCAGGGAAACCCCUGGUUUUUUCAACAGCUCGCAGUCAAG” yielded a binding signal (log2 fold change) of -0.234. Sequence “GGUCACGUCUCAAUCAACUCAGUUCCAGGAGUUUUCUCCUGCUUUUUCAACAGCUCGCAGUCAAG” has a binding signal (log2 fold change) of 0.00165. “GGUCACGUCUCAAUCAACUCUUCUUCCAGGGAAAGCCCUGGCUAUUUCAACAGCUCGCAGUCAAG” was tested, and the binding signal (log2 fold change) was 0.333. Work on “GGUCACGUCUCAAUCAACUCAAUCUCCAGGGAAACCCCUGGCUAUCUCAACAGCUCGCAGUCAAG” yielded a binding signal (log2 fold change) of 0.112. Work on “GGUCACGUCUCAAUCAACUCAUCCUCAGGAGUUUCCUCCUGUAUACUCAACAGCUCGCAGUCAAG” yielded a binding signal (log2 fold change) of 0.262. Sequence “GGUCACGUCUCAAUCAACUCAACUCCCAGGGAAACCCCUGGUAAACUCAACAGCUCGCAGUCAAG” has a binding signal (log2 fold change) of -0.121. “GGUCACGUCUCAAUCAACUCUUUCGCAGGAGUUUUCUCCUGGUUUCUCAACAGCUCGCAGUCAAG” showed a binding signal (log2 fold change) of 0.182. In the case of “GGUCACGUCUCAAUCAACUCAAUCUCCAGGGAAACCCCUGGCAAUUUCAACAGCUCGCAGUCAAG”, the binding signal (log2 fold change) is reported as 0.00699. Work on “GGUCACGUCUCAAUCAACUCUACUCCCAGGGAAAGCCCUGGCAUUUUCAACAGCUCGCAGUCAAG” yielded a binding signal (log2 fold change) of 0.0833. With “GGUCACGUCUCAAUCAACUCUCACGAGGGGGGGAAAACCCCUUUACCCUCUUAUUCAACAGCUCGCAGUCAAG” the binding signal (log2 fold change) was 0.196. “GGUCACGUCUCAAUCAACUCAAGUCCCAGGGAAAUCCCUGGUUAAUUCAACAGCUCGCAGUCAAG” showed a binding signal (log2 fold change) of -0.392. “GGUCACGUCUCAAUCAACUCAACUUCAGGAGUUUACUCCUGUUUAUUCAACAGCUCGCAGUCAAG” gave a binding signal (log2 fold change) of -0.138. Sequence “GGUCACGUCUCAAUCAACUCUAUUCCCAGGGAAAUCCCUGGCAUUCUCAACAGCUCGCAGUCAAG” has a binding signal (log2 fold change) of -0.0783. For “GGUCACGUCUCAAUCAACUCAAUUUCAGGAGUUUUCUCCUGUUAACUCAACAGCUCGCAGUCAAG”, the binding signal (log2 fold change) was 0.208. For “GGUCACGUCUCAAUCAACUCUACUUCCAGGGAAAACCCUGGUAUUUUCAACAGCUCGCAGUCAAG”, the binding signal (log2 fold change) was -0.228. “GGUCACGUCUCAAUCAACUCCUUAGAGGGGGGGAAAACCCCUUUACCCUCACAAUCAACAGCUCGCAGUCAAG” gave a binding signal (log2 fold change) of 0.216. “GGUCACGUCUCAAUCAACUCUAUUCCAGGAGUUUACUCCUGUUAACUCAACAGCUCGCAGUCAAG” was tested, and the binding signal (log2 fold change) was 0.0473. “GGUCACGUCUCAAUCAACUCAUCUCCAGGAGUUUUCUCCUGCAAAUUCAACAGCUCGCAGUCAAG” was tested, and the binding signal (log2 fold change) was 0.103. Sequence “GGUCACGUCUCAAUCAACUCUAUCUCAGGAGUUUACUCCUGCUAUCUCAACAGCUCGCAGUCAAG” has a binding signal (log2 fold change) of 0.227. With “GGUCACGUCUCAAUCAACUCUUCUCCAGGAGUUUACUCCUGCUUAUUCAACAGCUCGCAGUCAAG” the binding signal (log2 fold change) was -0.182. With “GGUCACGUCUCAAUCAACUCACUAGAGGGGGGGAAAACCCCUUUACCCUCAUAUUCAACAGCUCGCAGUCAAG” the binding signal (log2 fold change) was -0.033. “GGUCACGUCUCAAUCAACUCUUUUUCCAGGGAAAUCCCUGGCGUUUUCAACAGCUCGCAGUCAAG” was tested, and the binding signal (log2 fold change) was 0.172. With “GGUCACGUCUCAAUCAACUCCUACGAGGGGGGGAAAACCCCUUUACCCUCUCAAUCAACAGCUCGCAGUCAAG” the binding signal (log2 fold change) was -0.429. Work on “GGUCACGUCUCAAUCAACUCUACGCCAGGAGUUUUCUCCUGUUUAUUCAACAGCUCGCAGUCAAG” yielded a binding signal (log2 fold change) of 0.267. In the case of “GGUCACGUCUCAAUCAACUCUUCUUCAGGAGUUUACUCCUGUUUUUUCAACAGCUCGCAGUCAAG”, the binding signal (log2 fold change) is reported as -0.197. Work on “GGUCACGUCUCAAUCAACUCUUCCCCCAGGGAAAACCCUGGCAAUCUCAACAGCUCGCAGUCAAG” yielded a binding signal (log2 fold change) of 0.035. With “GGUCACGUCUCAAUCAACUCAUUCGAGGGGGGGAAAACCCCUUUGCCCUCAUUCUCAACAGCUCGCAGUCAAG” the binding signal (log2 fold change) was 0.195. For “GGUCACGUCUCAAUCAACUCUAUUUCAGGAGUUUUCUCCUGUAUUUUCAACAGCUCGCAGUCAAG”, the binding signal (log2 fold change) was -0.0406. For “GGUCACGUCUCAAUCAACUCUAUUUCCAGGGAAACCCCUGGCAUACUCAACAGCUCGCAGUCAAG”, the binding signal (log2 fold change) was -0.0479.
